Results as given in publication PMC9911399, “Two distinct binding modes provide the RNA-binding protein RbFox with extraordinary sequence specificity”.
Positions count from the first letter of the chain named. Some of the results follow.

B1: AUUAGGG (DNA:RNA)
RNA: GGGAGACCGGAAUUCAGAUUGUCCAUUAGGGUUAAAUCCCGUCGUAGCCACCA
DNA 1: CAATCTGAATTCCGGTCTCCC
DNA 2: TGGTGGCTACGACGGGATT
B2: UUACUGU (DNA:RNA)
RNA: B1 RNA with A25U, U27A, A28C, G29U, G31U
DNA 1: CAATCTGAATTCCGGTCTCCC
DNA 2: TGGTGGCTACGACGGGATT
B3: AGCUGAU (DNA:RNA)
RNA: B1 RNA with U26G, U27C, A28U, G30A, G31U
DNA 1: CAATCTGAATTCCGGTCTCCC
DNA 2: TGGTGGCTACGACGGGATT
B4: GGCUAUG (DNA:RNA)
RNA: B1 RNA with A25G, U26G, U27C, A28U, G29A, G30U
DNA 1: CAATCTGAATTCCGGTCTCCC
DNA 2: TGGTGGCTACGACGGGATT
B5: GAGGAAU (DNA:RNA)
RNA: GGGAGACCGGAAUUCAGAUUGUCCGAGGAAUUUAAAUCCCGUCGUAGCCACCA
DNA 1: CAATCTGAATTCCGGTCTCCC
DNA 2: TGGTGGCTACGACGGGATT
B6: AUAGCAU (DNA:RNA)
RNA: B5 RNA with G25A, A26U, G27A, A29C
DNA 1: CAATCTGAATTCCGGTCTCCC
DNA 2: TGGTGGCTACGACGGGATT
B7: UACUCCU (DNA:RNA)
RNA: B5 RNA with G25U, G27C, G28U, A29C, A30C
DNA 1: CAATCTGAATTCCGGTCTCCC
DNA 2: TGGTGGCTACGACGGGATT
B8: CCCGAUC (DNA:RNA)
RNA: B5 RNA with G25C, A26C, G27C, A30U, U31C
DNA 1: CAATCTGAATTCCGGTCTCCC
DNA 2: TGGTGGCTACGACGGGATT
B9: GGAAGCC (DNA:RNA)
RNA: B1 RNA with A25G, U26G, U27A, G30C, G31C
DNA 1: CAATCTGAATTCCGGTCTCCC
DNA 2: TGGTGGCTACGACGGGATT
B10: GAUCCAC (DNA:RNA)
RNA: B5 RNA with G27U, G28C, A29C, U31C
DNA 1: CAATCTGAATTCCGGTCTCCC
DNA 2: TGGTGGCTACGACGGGATT
B11: AGACUAG (DNA:RNA)
RNA: B1 RNA with U26G, U27A, A28C, G29U, G30A
DNA 1: CAATCTGAATTCCGGTCTCCC
DNA 2: TGGTGGCTACGACGGGATT
B12: UCUCUUC (DNA:RNA)
RNA: B1 RNA with A25U, U26C, A28C, G29U, G30U, G31C
DNA 1: CAATCTGAATTCCGGTCTCCC
DNA 2: TGGTGGCTACGACGGGATT
B13: AGCGGGG (DNA:RNA)
RNA: B1 RNA with U26G, U27C, A28G
DNA 1: CAATCTGAATTCCGGTCTCCC
DNA 2: TGGTGGCTACGACGGGATT
B14: GUCCAGA (DNA:RNA)
RNA: B1 RNA with A25G, U27C, A28C, G29A, G31A
DNA 1: CAATCTGAATTCCGGTCTCCC
DNA 2: TGGTGGCTACGACGGGATT
B15: UGGGCUU (DNA:RNA)
RNA: B5 RNA with G25U, A26G, A29C, A30U
DNA 1: CAATCTGAATTCCGGTCTCCC
DNA 2: TGGTGGCTACGACGGGATT
B16: UACAACA (DNA:RNA)
RNA: B5 RNA with G25U, G27C, G28A, A30C, U31A
DNA 1: CAATCTGAATTCCGGTCTCCC
DNA 2: TGGTGGCTACGACGGGATT
B17: UAUAUGA (DNA:RNA)
RNA: B1 RNA with A25U, U26A, G29U, G31A
DNA 1: CAATCTGAATTCCGGTCTCCC
DNA 2: TGGTGGCTACGACGGGATT
B18: CUCGAGA (DNA:RNA)
RNA: B1 RNA with A25C, U27C, A28G, G29A, G31A
DNA 1: CAATCTGAATTCCGGTCTCCC
DNA 2: TGGTGGCTACGACGGGATT
B19: CUCAUCC (DNA:RNA)
RNA: B1 RNA with A25C, U27C, G29U, G30C, G31C
DNA 1: CAATCTGAATTCCGGTCTCCC
DNA 2: TGGTGGCTACGACGGGATT
B20: UCGAAAG (DNA:RNA)
RNA: B5 RNA with G25U, A26C, G28A, U31G
DNA 1: CAATCTGAATTCCGGTCTCCC
DNA 2: TGGTGGCTACGACGGGATT

Each binder was assayed against T1, RBFOX1 RRM RbFoxmut (Fox-RRM*) (Homo sapiens, UniProt Q9NWB1 109-208, R118D;E147R;N151S;E152T) (assay: EMSA; HiTS-Eq, 1 nM pool, 10 min; buffer printed only for the single-RNA assays: 10 mM Tris pH 7.5, 150 mM NaCl, 3.4 mM EDTA, 0.001% NP-40, 30 C). Details: tags: His6 N-terminal (pET28a); label: 5' 32P.
T1 sequence: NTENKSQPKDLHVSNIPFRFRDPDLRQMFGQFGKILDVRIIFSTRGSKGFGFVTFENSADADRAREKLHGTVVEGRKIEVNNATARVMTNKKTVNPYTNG
Procedure, shortened: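 A pool of RNA with 7 randomized nucleotides, 5′-radiolabelled and with DNA-annealed flanks, was equilibrated at 1 nM for 10 min in 50 µL with purified RbFox RRM, wild type or mutant, across increasing protein concentrations. Free RNA was separated by 8% native PAGE, excised, reverse-transcribed, barcoded by PCR and sequenced. Relative association constants were obtained from read-count changes of each RNA species versus the control reaction and normalised to the cognate motif.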

First: B1
Second: B2
The binding signal of the first is lower: 0.0841 KA relative to UGCAUGU for the first, 0.113 KA relative to UGCAUGU for the second.

First: B3
Second: B4
The binding signal of the first is lower: 0.112 KA relative to UGCAUGU for the first, 0.405 KA relative to UGCAUGU for the second.

First: B5
Second: B6
The binding signal of the first is higher: 0.12 KA relative to UGCAUGU for the first, 0.111 KA relative to UGCAUGU for the second.

First: B7
Second: B8
The binding signal of the first is higher: 0.066 KA relative to UGCAUGU for the first, 0.0576 KA relative to UGCAUGU for the second.

Compared with B9, B10 is higher in binding signal: 0.066 KA relative to UGCAUGU for the first, 0.0722 KA relative to UGCAUGU for the second.

First: B11
Second: B12
The binding signal of the first is higher: 0.0893 KA relative to UGCAUGU for the first, 0.0532 KA relative to UGCAUGU for the second.

First: B13
Second: B14
The binding signal of the first is lower: 0.0911 KA relative to UGCAUGU for the first, 0.101 KA relative to UGCAUGU for the second.

First: B15
Second: B16
The binding signal of the first is higher: 0.0882 KA relative to UGCAUGU for the first, 0.0754 KA relative to UGCAUGU for the second.

First: B17
Second: B18
The binding signal of the first is lower: 0.0696 KA relative to UGCAUGU for the first, 0.0759 KA relative to UGCAUGU for the second.

First: B19
Second: B20
The binding signal of the first is higher: 0.0887 KA relative to UGCAUGU for the first, 0.0799 KA relative to UGCAUGU for the second.
